About 2,200 (0.71%) of roughly 310,000 compounds showed an effect of 50% or more. Effects have a minus sign here. Some of the results follow.

For the experiment, the target named is human ether-à-go-go-related gene (hERG) potassium channel (human, UniProt Q12809). Put plainly: primary screen, population patch clamp on CHO cells stably expressing hERG.
Chain of human ether-à-go-go-related gene (hERG) potassium channel (Q12809 whole entry, looked up): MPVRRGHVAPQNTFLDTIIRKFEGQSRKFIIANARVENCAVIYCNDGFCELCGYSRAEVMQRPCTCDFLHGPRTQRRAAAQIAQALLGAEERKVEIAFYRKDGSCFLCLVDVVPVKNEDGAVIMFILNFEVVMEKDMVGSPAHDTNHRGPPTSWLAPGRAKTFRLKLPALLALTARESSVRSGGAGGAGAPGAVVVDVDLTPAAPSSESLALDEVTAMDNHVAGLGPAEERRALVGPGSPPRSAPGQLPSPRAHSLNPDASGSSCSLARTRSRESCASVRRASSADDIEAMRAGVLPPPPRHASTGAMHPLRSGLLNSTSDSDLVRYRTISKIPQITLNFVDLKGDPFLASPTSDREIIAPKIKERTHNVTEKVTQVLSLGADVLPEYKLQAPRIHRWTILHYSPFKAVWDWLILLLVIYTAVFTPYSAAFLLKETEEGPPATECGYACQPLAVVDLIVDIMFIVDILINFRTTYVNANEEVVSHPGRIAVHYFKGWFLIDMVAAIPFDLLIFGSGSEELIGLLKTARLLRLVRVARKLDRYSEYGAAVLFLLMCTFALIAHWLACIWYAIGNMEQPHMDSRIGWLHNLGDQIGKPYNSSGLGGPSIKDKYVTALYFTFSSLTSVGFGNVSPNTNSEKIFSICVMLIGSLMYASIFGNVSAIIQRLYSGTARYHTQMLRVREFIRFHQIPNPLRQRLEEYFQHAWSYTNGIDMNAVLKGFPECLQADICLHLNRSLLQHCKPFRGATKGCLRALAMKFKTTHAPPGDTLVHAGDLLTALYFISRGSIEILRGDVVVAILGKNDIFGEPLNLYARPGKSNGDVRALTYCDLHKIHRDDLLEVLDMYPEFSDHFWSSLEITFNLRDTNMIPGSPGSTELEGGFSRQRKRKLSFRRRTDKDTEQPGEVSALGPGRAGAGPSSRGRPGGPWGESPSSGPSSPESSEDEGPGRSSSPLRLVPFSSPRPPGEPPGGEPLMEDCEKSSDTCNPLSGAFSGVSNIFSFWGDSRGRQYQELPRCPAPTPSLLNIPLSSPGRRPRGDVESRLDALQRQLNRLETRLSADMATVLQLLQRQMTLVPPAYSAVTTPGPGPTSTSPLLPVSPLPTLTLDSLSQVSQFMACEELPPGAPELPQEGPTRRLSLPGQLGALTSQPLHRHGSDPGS
For `C[C@H]1CC[C@@]2(O[C@@H](CCO)C[C@@H](O)[C@@H]2O)O1`, the “hERG current change (%, negative = inhibition) at 1uM” value stood at 15.1%. `COc1ccc(Cl)cc1NC(=O)CN1CCN(S(=O)(=O)c2ccc(F)cc2)CC1`: the “hERG current change (%, negative = inhibition) at 1uM” value is -1.66%. The same measure for `CCOC(=O)C1(CCOc2ccccc2)CCN(Cc2cc(OC)c3c(c2)OCO3)CC1`: -7.24%. The same measure for `Cc1cc2c(cc1C)C(c1cccc(F)c1)CC(=O)N2` (centres unmarked): 14.2%; for `O=C(CCc1nnc(CCC2CCCCC2)o1)NCCn1cccn1`: 9.32%; for `CCCCNC(=O)COC(=O)c1ccc(C)c(NC(=O)c2ccco2)c1`: 11.3%. The result for `COc1cc(/C=N/S(=O)(=O)CCc2ccccc2)cc(OC)c1O` reads 4.57%; that for `OCC(CO)(CO)NC(=S)Nc1cc(Cl)cc(Cl)c1`, 13.8%. As for `CCCCCN(C(=O)CCC(=O)OCC(=O)N1CCCC(C)C1)c1c(N)n(CCCC)c(=O)[nH]c1=O` (centres unmarked), the “hERG current change (%, negative = inhibition) at 1uM” value came out at 8.32%. The result for `O=C(COc1ncnc2c(Cl)cc(Cl)cc12)Nc1cc([N+](=O)[O-])ccc1Cl` reads 7.51%; that for `CC1(C)CC2(CC(C)(C)N1)OC(=O)N1CCc3ccccc3C12C` (centres unmarked), 5.41%; that for `O=C(NC(=S)Nc1ccc(S(=O)(=O)N2CCCC2)cc1)C1CC1`, 7.05%.

As for `NC(=O)CN1C(=O)NC2(CCCc3ccccc32)C1=O` (centres unmarked), the “hERG current change (%, negative = inhibition) at 1uM” value came out at 13.6%. The result for `Cc1cccc(NC(=O)C2(c3ccc([N+](=O)[O-])cc3)CCCC2)c1` reads -6.17%; that for `O=C(NCc1nnc(SCC(=O)N2CCCC2)o1)c1ccccc1F`, 13.7%; that for `Clc1nc(CN2CCCCC2)nc2sc3c(c12)CCC3`, 3.66%.

With `C=CCN=C(CC)C1=C(O)CCCC1=O`, the “hERG current change (%, negative = inhibition) at 1uM” value is on record as 1.76%.

For the molecule `CC(=O)c1ccc(NC(=O)c2cccc(N3C(=O)c4ccccc4C3=O)c2)cc1`, the “hERG current change (%, negative = inhibition) at 1uM” value was -1.29%.

Take `CCC1CCCCN1CCCNC(=O)C1CCN(Cc2nc(-c3ccc(Cl)cc3)oc2C)CC1` (centres unmarked): the “hERG current change (%, negative = inhibition) at 1uM” value was found to be 9.92%. Consider `CCOc1cccc(C2NC(=S)NC(C)=C2C(=O)Nc2ccccc2)c1` (centres unmarked), for which the “hERG current change (%, negative = inhibition) at 1uM” value is reported as 16%. The same measure for `CCOc1ccccc1C(=O)Nc1nnc(Cc2ccc(OC)c(OC)c2)s1`: 16.3%; for `CCC(C(=O)OC)n1cnc2c(oc3ccccc32)c1=O` (centres unmarked): 17%; for `CCOC(=O)c1ccc(Cn2c(-c3ccccc3)nnc2-c2ccccc2)o1`: 4.13%. The result for `O=C(O)c1cc([N+](=O)[O-])cc2c1nnn2O` reads 13.7%. Regarding `CCOC(=O)c1cc(-c2ccccc2)nn1Cc1cc(C)no1`, the “hERG current change (%, negative = inhibition) at 1uM” value is on record as 15.9%. The same measure for `N#C/C(=C\c1ccc(OCC(N)=O)cc1)S(=O)(=O)c1ccccc1`: 8.39%. Turning to `Cc1nnc(N2CCC(C(=O)NC3CCC(C)CC3)CC2)c2nn(-c3ccc(Cl)cc3)c(C)c12` (centres unmarked), the “hERG current change (%, negative = inhibition) at 1uM” value is 14.1%. The same measure for `COC(=O)CC1SCCNC1=O` (centres unmarked): 9.24%; for `CN1CC(=O)NC1=NC(=O)c1cc(F)c(F)cc1Cl`: 15.8%; for `Cc1ccc(NC(=O)CC2C(=O)N(Cc3ccccc3)C(=S)N2NC(=O)c2cccc(F)c2)c(C)c1` (centres unmarked): 2.54%. The result for `CN(C(=O)c1ccc(NC(=O)Cc2cccc(NC(=O)C3CCN(C(=O)C4CCCC4)CC3)c2)cc1)C1CCCC1` reads 6.3%.

As for `COc1ccc(OC)c(/C=N/NC(=O)CC(=O)NC2CCCCC2)c1`, the “hERG current change (%, negative = inhibition) at 1uM” value came to 10.7%. The same measure for `COCCN1CCC(CNCc2cn(-c3cc(C)ccc3C)nc2-c2ccccc2)C1` (centres unmarked): 2.69%; for `CN1C(=O)C(C)(C)c2cc(S(=O)(=O)N(C)Cc3ccccc3)ccc21`: 13.7%. The same measure for `O=C(COc1ccccc1C(=O)c1cnn(-c2ccccc2)c1)Nc1ccc2ccccc2c1`: 9.11%; for `Cc1cnc(C(=O)OCC(=O)Nc2cccc(S(=O)(=O)N3CCCCC3)c2)cn1`: 7.04%. The result for `NNC(=O)c1cc2ccccc2cc1O` reads 5.55%; that for `Cc1cc(O)c(/C=N/Nc2ccc(F)cc2)c(=O)o1`, 12.3%; that for `O=C(NCc1ccccc1Cl)c1ccc2nc[nH]c2c1`, 5.92%. Turning to `c1cncc(-c2nc(NCCCn3ccnc3)c3ccccc3n2)c1`, the “hERG current change (%, negative = inhibition) at 1uM” value is reported as -13.1%. Turning to `CCC(C)Oc1cccc(OCCCCN2C(=O)NC(C)(C)C2=O)c1` (centres unmarked), the “hERG current change (%, negative = inhibition) at 1uM” value was found to be 0.704%. The result for `Cc1ccc(C(=O)OCC(=O)NCCNC(=O)COC(=O)c2ccc(C)o2)o1` reads 17.7%; that for `Cc1cc(OCC[N+]2(C)CCCCC2)nc2ccccc12.[I-]`, 11.6%; that for `Cc1ccccc1-c1ccnc2[nH]n(-c3ccccc3)c(=O)c12`, 14.8%. The result for `CCc1ccc(/C=N/NC(=O)c2nnn(-c3nonc3N)c2CN2CCc3ccccc32)cc1` reads 9.5%. The same measure for `CC(=O)Nc1ccc(S(=O)(=O)N(C)CC(=O)Nc2ccc(F)c(F)c2F)cc1`: 7.72%; for `Cc1ccc(COC(=O)c2cc(S(=O)(=O)N3CCOCC3)ccc2C)cc1`: 7.76%; for `COc1cc(/C=C/C(=O)Nc2nc3ccc(S(=O)(=O)N(C)C)cc3s2)cc(OC)c1OC`: 3.31%. In the case of `Cc1ccc(NC(=O)CSCc2cc(=O)n3nc(C4CC4)sc3n2)cc1`, the “hERG current change (%, negative = inhibition) at 1uM” value was 8.38%. The result for `O=C(CSc1ccc(Cl)cc1)N1CCN(c2ccc(Cl)cc2[N+](=O)[O-])CC1` reads -39.9%. The same measure for `Cc1cccc(NC(=O)C2(c3ccccc3)CC2(Cl)Cl)c1` (centres unmarked): 16.7%; for `C=Cn1ccnc1P(=S)(c1ccc(N(C)C)cc1)c1nccn1C=C`: -2.94%; for `COc1ccccc1-c1nc(SCC(=O)N(C)c2ccccc2)c2c(=O)n(C)c(=O)n(C)c2n1`: 13.3%. The same measure for `C/C(=N\Nc1ccc(F)cc1F)c1ccccc1O`: 12.8%; for `COCC(=O)NCc1ccc2c(c1)cc(C)n2C`: -4.48%; for `O=C(CCc1nnc(C2(c3ccc(Cl)cc3)CCC2)o1)NC1CC1`: 10.3%.

For the origin of these results see article PMC4336329 (PLoS ONE, 2015).
